In paper PMC4336329 (PLoS ONE, 2015):
In all, about 310,000 compounds went through this assay and about 14,000 (4.5%) showed an effect of 50% or more. The effect is printed as a negative number. This is one part of the list.

Each compound was assayed against human ether-à-go-go-related gene (hERG) potassium channel (human, UniProt Q12809) (assay: primary screen, population patch clamp on CHO cells stably expressing hERG).
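Further: peak tail current of the secondary pulse compared with the same well before compound.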

Sequence of human ether-à-go-go-related gene (hERG) potassium channel (Q12809 whole entry, looked up): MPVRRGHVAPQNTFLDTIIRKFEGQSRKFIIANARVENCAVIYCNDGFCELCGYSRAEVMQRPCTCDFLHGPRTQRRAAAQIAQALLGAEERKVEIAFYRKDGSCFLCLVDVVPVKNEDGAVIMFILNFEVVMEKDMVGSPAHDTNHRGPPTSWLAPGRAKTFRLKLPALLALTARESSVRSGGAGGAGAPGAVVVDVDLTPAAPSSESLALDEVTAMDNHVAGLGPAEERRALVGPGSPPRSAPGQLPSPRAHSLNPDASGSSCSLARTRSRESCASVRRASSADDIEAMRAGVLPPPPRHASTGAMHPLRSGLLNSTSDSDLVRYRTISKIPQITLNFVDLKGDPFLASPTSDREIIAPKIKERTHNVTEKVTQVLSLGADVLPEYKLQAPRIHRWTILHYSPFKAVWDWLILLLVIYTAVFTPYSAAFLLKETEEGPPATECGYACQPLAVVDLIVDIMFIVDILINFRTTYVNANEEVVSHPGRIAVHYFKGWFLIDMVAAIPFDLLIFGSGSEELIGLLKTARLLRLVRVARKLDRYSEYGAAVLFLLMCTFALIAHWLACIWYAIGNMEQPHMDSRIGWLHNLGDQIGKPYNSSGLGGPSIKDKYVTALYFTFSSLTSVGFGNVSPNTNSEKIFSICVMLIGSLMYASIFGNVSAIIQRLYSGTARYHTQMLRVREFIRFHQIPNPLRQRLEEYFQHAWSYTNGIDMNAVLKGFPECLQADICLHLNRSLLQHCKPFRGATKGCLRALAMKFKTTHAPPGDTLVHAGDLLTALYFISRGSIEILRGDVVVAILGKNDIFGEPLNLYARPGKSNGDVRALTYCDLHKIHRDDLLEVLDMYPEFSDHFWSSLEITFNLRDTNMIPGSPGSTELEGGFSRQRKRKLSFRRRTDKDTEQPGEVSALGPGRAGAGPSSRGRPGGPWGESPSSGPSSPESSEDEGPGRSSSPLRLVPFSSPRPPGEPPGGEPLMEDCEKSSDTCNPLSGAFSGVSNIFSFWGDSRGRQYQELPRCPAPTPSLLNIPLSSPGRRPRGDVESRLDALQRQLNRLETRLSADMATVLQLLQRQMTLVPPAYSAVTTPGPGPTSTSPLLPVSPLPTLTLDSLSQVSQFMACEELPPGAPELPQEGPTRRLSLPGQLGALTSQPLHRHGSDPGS

Compared with `O=C1NC(=O)/C(=C\c2ccccc2OCc2ccc([N+](=O)[O-])cc2)N1`, `O=Cc1cn(Cc2ccc(F)cc2)c2ccccc12` is higher in “hERG current change (%, negative = inhibition) at 10uM” value: -41.5% for the first, 13.7% for the second.

First: COc1cc(CCC(=O)Nc2ncc(C)s2)cc(OC)c1OC
Second: CCOc1ccc(CCNC(=O)c2cc3c(C)nccc3[nH]c2=O)cc1OCC
The “hERG current change (%, negative = inhibition) at 10uM” value of the first is higher: 6.18% for the first, -24.8% for the second.

Going from `CC(=O)N1N=C(c2cccs2)CC1c1cccc([N+](=O)[O-])c1` (centres unmarked) to `COc1ccc(/C=N/Nc2ccc([N+](=O)[O-])cc2)cc1O`, the “hERG current change (%, negative = inhibition) at 10uM” value rises from -51.6% to 10.1%.

Going from `CCCCOP(=O)(CN1CCOCC1)OCCCC` to `CCCCN(C(=O)CN1CCOCC1)c1c(N)n(CC(C)C)c(=O)[nH]c1=O`, the “hERG current change (%, negative = inhibition) at 10uM” value falls from 11.3% to -0.315%.

Going from `COc1ccccc1C(=O)COC(=O)C1CCN(S(=O)(=O)c2ccc(C)c(C)c2)CC1` to `O=C(OCC(=O)N1CCc2ccccc21)C1CCCN1S(=O)(=O)c1ccc(Cl)cc1` (centres unmarked), the “hERG current change (%, negative = inhibition) at 10uM” value falls from 11.7% to -17.8%.

Compared with `COc1ccc(Cl)cc1NC(=O)N1CCN(S(C)(=O)=O)CC1`, `CN1CCN(C(=O)Nc2ccccc2)CC1.O=C(O)C(=O)O` is higher in “hERG current change (%, negative = inhibition) at 10uM” value: 1.56% for the first, 23.2% for the second.

Compared with `CCS(=O)(=O)c1ccc(-c2csc(-c3ccccc3Cl)n2)c(Cl)c1Cl`, `Cc1ccccc1OCC(=O)Nc1cccc(Cl)c1C` is higher in “hERG current change (%, negative = inhibition) at 10uM” value: -4.77% for the first, 11.9% for the second.

Going from `Cc1cccnc1NC(=O)c1nn(C)c2c1CS(=O)(=O)c1ccccc1-2` to `O=C(Nc1nc2ccccc2[nH]1)C1CC(=O)N(c2ccc3c(c2)OCCO3)C1` (centres unmarked), the “hERG current change (%, negative = inhibition) at 10uM” value falls from 5.7% to -6.56%.

Going from `CCSc1nc(N2CCOCC2)c2c(c1C#N)CC(C)(C)N(C)C2` to `C=CCNC(=S)N1CCOCC1`, the “hERG current change (%, negative = inhibition) at 10uM” value rises from -27.9% to -1.69%.

Going from `COCCCNC(=O)Cn1nnc(-c2ccc(NC(=O)c3ccccc3F)cc2)n1` to `CSc1cccc(NC(=O)CCCNC(=O)c2ccc(Cl)cc2)c1`, the “hERG current change (%, negative = inhibition) at 10uM” value rises from -2.44% to 4.42%.

Going from `Cc1ccc2[nH]c(=O)c(CN(Cc3nnnn3Cc3ccccc3)C3CCCC3)cc2c1` to `Cc1ccc(-n2cccn2)c(CN2CCCC(CNC(=O)c3ccc(F)cc3)C2)c1` (centres unmarked), the “hERG current change (%, negative = inhibition) at 10uM” value falls from 7.16% to -75.5%.

Compared with `O=C(CNC(=S)N(Cc1ccccc1)Cc1ccccc1F)NCCc1ccc(Cl)cc1`, `Cc1ccccc1N(CC(=O)NCc1ccccc1)C(=O)CCC(=O)Nc1nccs1` is higher in “hERG current change (%, negative = inhibition) at 10uM” value: 5.67% for the first, 11.8% for the second.

Compared with `CCOc1ccc(NC2=NCC(=O)N2CCc2ccccc2)cc1.Cl`, `COc1ccc(CCN2C(=O)CC(Cc3ccccc3)C2=O)cc1OC` (centres unmarked) is lower in “hERG current change (%, negative = inhibition) at 10uM” value: 3.02% for the first, -17.2% for the second.

Compared with `CC1CCc2nc(NC(=O)c3ccc(N4C(=O)CCC4=O)cc3)sc2C1` (centres unmarked), `Cc1csc(NC(=O)c2cc3c(s2)CCCC3)n1` is lower in “hERG current change (%, negative = inhibition) at 10uM” value: 12.6% for the first, -20.9% for the second.

First: COc1cccc([C@@H]2CC=C(C(=O)O)[C@H](c3ccccc3F)N2S(=O)(=O)c2ccc(C)cc2)c1
Second: C=CCn1c(NS(=O)(=O)c2ccccc2)c(S(=O)(=O)c2ccc(C)cc2)c2nc3ccccc3nc21
The “hERG current change (%, negative = inhibition) at 10uM” value of the first is higher: 10.9% for the first, -2.63% for the second.

Compared with `Cc1cc(C(=O)Nc2cc(C(C)(C)C)on2)c(C)o1`, `COc1ccc(NC(=O)C2CCCN2C(=O)OC(C)(C)C)cc1` (centres unmarked) is lower in “hERG current change (%, negative = inhibition) at 10uM” value: 17.2% for the first, 14.5% for the second.

Going from `CC(C)n1c(/N=C/c2ccccc2O)nc2ccccc21` to `Cn1cccc/c1=N\c1cccc[n+]1C.[I-]`, the “hERG current change (%, negative = inhibition) at 10uM” value falls from 19% to 16.6%.

Compared with `COc1cccc(-n2c(SCC(=O)NC3CCCC3)nnc2-c2ccco2)c1`, `COc1ccc(-n2c(SCC(=O)Nc3ccc(C(N)=O)cc3)nc3ccccc3c2=O)cc1OC` is higher in “hERG current change (%, negative = inhibition) at 10uM” value: -73.7% for the first, 14.1% for the second.

Going from `CCCCN1C(=O)C(=O)N(CC(=O)N2CCN(c3ccccc3)CC2)C1=O` to `O=C(NCC1COc2ccccc2O1)c1ccc(Cl)c(S(=O)(=O)N2CCCC2)c1` (centres unmarked), the “hERG current change (%, negative = inhibition) at 10uM” value falls from 3.67% to -15.1%.

Compared with `CC1CCN(S(=O)(=O)c2ccc(NC(=O)C3CC3)cc2)CC1`, `Cc1cccc(C)c1NC(=O)C1CCCN1C(=O)Nc1cccc(F)c1` (centres unmarked) is higher in “hERG current change (%, negative = inhibition) at 10uM” value: -4.45% for the first, 8.23% for the second.

Going from `Cc1cc([N+](=O)[O-])nn1CCCC(=O)O` to `C=C(C)C1CC=C(C)/C(=N\NC(=O)CCc2ccccc2)C1` (centres unmarked), the “hERG current change (%, negative = inhibition) at 10uM” value rises from 5.95% to 13.4%.

First: O=C(CCc1c[nH]c2ccccc12)NC1CC1
Second: Cc1ccc(NC(=S)NCCc2c[nH]c3ccccc23)cc1
The “hERG current change (%, negative = inhibition) at 10uM” value of the first is higher: 14.1% for the first, -1.12% for the second.

Compared with `CCN(CC)S(=O)(=O)c1ccc2oc(Nc3ccc4c(c3)OCCO4)nc2c1`, `O=C(COC(=O)CCc1nc2ccccc2c(=O)[nH]1)Nc1ccc2c(c1)OCO2` is lower in “hERG current change (%, negative = inhibition) at 10uM” value: 1.32% for the first, 0.358% for the second.

Going from `O=C(CN1C2CCCC1CC(NC(=O)c1ccccc1)C2)Nc1nccs1` (centres unmarked) to `O=C(c1ccc2c(c1)OCO2)C1CCCN(Cc2ccc3nsnc3c2)C1` (centres unmarked), the “hERG current change (%, negative = inhibition) at 10uM” value falls from -46% to -71.4%.

Compared with `CCN(C(=S)Nc1cccnc1)c1cccc2ccccc12`, `COc1cccc(/C(O)=C/c2nc3ccc(C(=O)NCCc4cccc(C)c4)cc3[nH]c2=O)c1` is higher in “hERG current change (%, negative = inhibition) at 10uM” value: 9.76% for the first, 10% for the second.

Compared with `O=S(=O)(Nc1nc2ccccc2nc1Cl)c1cccc(C(F)(F)F)c1`, `COc1ccc(/C=N/NC(=O)c2cccc(COCC(F)(F)C(F)F)c2)cc1` is lower in “hERG current change (%, negative = inhibition) at 10uM” value: 6.43% for the first, -35.8% for the second.

Compared with `COc1ccc(-c2nnc(SC(C)C#N)o2)cc1` (centres unmarked), `COc1ccc(O[C@@H]2O[C@H](COC(C)=O)[C@@H](OC(C)=O)[C@H](OC(C)=O)[C@H]2NC(C)=O)cc1` is lower in “hERG current change (%, negative = inhibition) at 10uM” value: -8.79% for the first, -10.7% for the second.

Compared with `Cc1ccc2nc(C)c(C)nc2c1N`, `O=C(c1ccco1)N1CCN(C(=O)c2ccc(COc3ccc(Cl)cc3Cl)o2)CC1` is lower in “hERG current change (%, negative = inhibition) at 10uM” value: 8.1% for the first, -70.4% for the second.
